Source: patent US20100285487A1 (LUDWIG MAXIMILIANS UNIVERSITAT MUNCHEN, published 2010)

Molecular target: T1, XRCC1-LacI-RFP (UniProt P18887; P03023 1-360)
T1 construct: also called XRCC1-LacI-RFP bait construct
Experiment: F2H assay, BHK cells
Procedure: The lac repressor part of the XRCC1-LacI-RFP fusion protein mediates binding to the lac operator array (visible by fluorescence microscopy as red spot). DNA Ligase III is recruited to the lac operator array through interaction with XRCC1. […] Scale bars 5 μm. (b) Comparison of F2H results and co-immunoprecipitation (Co-IP) experiments. Co-IPs were performed with HEK 293T cells co-expressing RFP-XRCC1 and GFP-Ligase III or GFP-Ligase I, respectively. For interaction mapping the GFP-tagged BRCT domain of DNA Ligase III and a deletion construct lacking the BRCT domain were used. Immunoprecipitations were performed with a GFP-nanotrap (Rothbauer et al., 2007) (as shown before (Mortusewicz et al., 2006)). Precipitated fusion proteins were then detected with specific antibodies against RFP and GFP on western blots. RFP-XRCC1 was co-precipitated with GFP-Ligase III but not with GFP-Ligase I. RFP-XRCC1 was also co-precipitated with GFP-Ligase III BRCT but not with GFP-N-Ligase III ΔBRCT. For comparison of F2H results the input (left) and bound (right) bands from Co-IPs were aligned with corresponding signals from the F2H assay. […]
To test the F2H assay, the previously described interaction between the two DNA repair proteins DNA Ligase III and XRCC1 (Caldecott et al., 1994; Wei et al., 1995) was analyzed and the results were compared with data obtained from pull down assays. […]

Chain of XRCC1-LacI-RFP (P18887 other isoform, or with tags, fused parts or gaps limits assumed): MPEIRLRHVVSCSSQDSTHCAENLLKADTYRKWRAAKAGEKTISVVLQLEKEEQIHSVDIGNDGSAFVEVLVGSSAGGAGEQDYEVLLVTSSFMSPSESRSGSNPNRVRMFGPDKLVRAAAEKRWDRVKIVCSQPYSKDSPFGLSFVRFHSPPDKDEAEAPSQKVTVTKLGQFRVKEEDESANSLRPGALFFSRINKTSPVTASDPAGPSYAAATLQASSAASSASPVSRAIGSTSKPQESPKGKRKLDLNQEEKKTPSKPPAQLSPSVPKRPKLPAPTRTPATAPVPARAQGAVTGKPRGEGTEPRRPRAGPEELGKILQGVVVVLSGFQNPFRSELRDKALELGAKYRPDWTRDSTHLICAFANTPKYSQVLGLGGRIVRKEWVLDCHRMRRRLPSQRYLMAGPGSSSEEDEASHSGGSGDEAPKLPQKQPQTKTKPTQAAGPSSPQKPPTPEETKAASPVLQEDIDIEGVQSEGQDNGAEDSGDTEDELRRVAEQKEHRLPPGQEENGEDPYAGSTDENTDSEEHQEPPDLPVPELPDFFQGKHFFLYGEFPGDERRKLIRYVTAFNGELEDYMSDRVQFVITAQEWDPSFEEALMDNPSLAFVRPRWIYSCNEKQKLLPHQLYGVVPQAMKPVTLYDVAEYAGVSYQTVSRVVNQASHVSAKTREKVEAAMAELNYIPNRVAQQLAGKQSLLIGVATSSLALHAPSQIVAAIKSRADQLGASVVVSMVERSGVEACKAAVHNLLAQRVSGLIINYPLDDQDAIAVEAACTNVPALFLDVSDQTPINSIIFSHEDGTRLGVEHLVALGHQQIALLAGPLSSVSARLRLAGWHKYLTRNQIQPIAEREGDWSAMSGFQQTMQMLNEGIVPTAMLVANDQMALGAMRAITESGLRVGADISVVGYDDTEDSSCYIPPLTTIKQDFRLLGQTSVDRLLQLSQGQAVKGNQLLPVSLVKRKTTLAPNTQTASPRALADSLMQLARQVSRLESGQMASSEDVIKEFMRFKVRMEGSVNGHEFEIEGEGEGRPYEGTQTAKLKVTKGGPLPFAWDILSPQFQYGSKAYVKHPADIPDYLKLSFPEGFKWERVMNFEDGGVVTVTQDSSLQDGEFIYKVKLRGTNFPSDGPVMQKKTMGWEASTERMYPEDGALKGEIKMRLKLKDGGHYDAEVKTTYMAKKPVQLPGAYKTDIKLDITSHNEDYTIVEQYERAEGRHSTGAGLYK

binding result: no binding
B1: GFP-tagged DNA Ligase I (other, not shown: large carriers; small tags and cut ends)
chain: [gap - about 250 residues]PSGYNPAKNNYHPVEDACWKPGQKVPYLAVARTFEKIEEVSARLRMVETLSNLLRSVVALSPPDLLPVLYLSLNHLGPPQQGLELGVGDGVLLKAVAQATGRQLESVRAEAAEKGDVGLVAENSRSTQRLMLPPPPLTASGVFSKFRDIARLTGSASTAKKIDIIKGLFVACRHSEARFIARSLSGRLRLGLAEQSVLAALSQAVSLTPPGQEFPPAMVDAGKGKTAEARKTWLEEQGMILKQTFCEVPDLDRIIPVLLEHGLERLPEHCKLSPGIPLKPMLAHPTRGISEVLKRFEEAAFTCEYKYDGQRAQIHALEGGEVKIFSRNQEDNTGKYPDIISRIPKIKLPSVTSFILDTEAVAWDREKKQIQPFQVLTTRKRKEVDASEIQVQVCLYAFDLIYLNGESLVREPLSRRRQLLRENFVETEGEFVFATSLDTKDIEQIAEFLEQSVKDSCEGLMVKTLDVDATYEIAKRSHNWLKLKKDYLDGVGDTLDLVVIGAYLGRGKRAGRYGGFLLASYDEDSEELQAICKLGTGFSDEELEEHHQSLKALVLPSPRPYVRIDGAVIPDHWLDPSAVWEVKCADLSLSPIYPAARGLVDSDKGISLRFPRFIRVREDKQPEQATTSAQVACLYRKQSQIQNQQGEDSGSDPEDTY
notes: also called GFP-Ligase I
